PubChem BioAssay (NCI)
Several values for one entry are separate records, joined by “and”; a condition that tells them apart may be missing. Identical values can stand only once.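 1) Cells in 96-well plates. 2) Compound, 48 h, 5 concentrations. 3) Linear interpolation between surrounding doses. 4) Unreached endpoint = highest concentration. At the GI50, growth is halved. At the TGI there is no net growth.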

Tested on: NCI-H322M lung
Test: NCI tumour cell line growth inhibition, 48 h

| Structure (SMILES) | TGI | GI50 |
| --- | --- | --- |
| NC(=O)C(=O)N/N=C1/c2ccccc2CC1C1(O)C(=O)Nc2c(Cl)cc(Cl)cc21 (stereo unspecified) | > 100 µM |  |
| COc1ccc2c(c1)C(O)(C(F)(F)F)c1cc(C(=O)C(F)(F)F)c3ccccc3c1N2 (stereo unspecified) | 24.6 µM |  |
| CC(C)NC[C@@H](C(=O)N1CCN(c2ncnc3c2[C@H](C)C[C@H]3O)CC1)c1ccc(Cl)cc1 | > 100 µM | > 10 µM and 33.3 µM |
| CC1(C)C(c2ccccc2)=[N+]([O-])C(C)(C)N1O | > 10 µM |  |
| COc1c(CCC[P+](c2ccccc2)(c2ccccc2)c2ccccc2)cc2c(c1OC)OCO2 | 31.5 µM | 3.17 µM |
| COCOc1ccc(OC)cc1 | > 100 µM |  |
| CCSC1=CC(=O)c2nc3ccccc3c3ccnc1c23 | 25.3 µM |  |
| CCN(CC)c1ccc(C(=C2C=CC(=[N+](CC)Cc3cccc(S(=O)(=O)O)c3)C=C2)c2ccc(N(CC)Cc3cccc(S(=O)(=O)O)c3)cc2)cc1 | > 100 µM | 10.4 µM |
| COc1cc(/C=C2\C(=O)N(C(=O)Cc3ccccc3)N=C2C)ccc1O | > 100 µM |  |
| N#Cc1c(-c2ccccc2)/c(=C\Nc2ccc(Cl)cc2)c(=O)n2c1nc1ccccc12 | > 100 µM |  |
| CCCCn1c2c(n(CCCC)c1=S)-c1c(n(CCCC)c(=S)n1CCCC)S[Se][Se]S2 | > 77.7 µM |  |
| CC/C=C\C=C/C(=O)N/C=C/CC1Cc2cccc(O)c2C(=O)O1 (stereo unspecified) | > 100 µM | > 100 µM |
| CSCCC(NCc1c(O)ccc2c(-c3ccccc3)cc(=O)oc12)C(=O)O (stereo unspecified) | > 100 µM |  |
| C/C(=N/NC(N)=S)c1ccc2ccccc2c1 | > 100 µM |  |
| CN(C)/C=C/c1nnc([N+](=O)[O-])s1 | 57.8 µM |  |
| CC(C)(C)C#CC1=C(Br)C(=O)OC1 | 4.37 µM | 1.65 µM |
| CCCCCn1c(=N)n(CC(O)COc2cccc(C)c2)c2ccccc21 (stereo unspecified) | 22.1 µM | 8.48 µM |
| CN(CCCN)CCCNc1nc2ccccc2c2[nH]c3ccccc3c12 | 0.696 µM | 0.116 µM |
| O=c1c2c([nH]c3cc4c(cc13)OCO4)-c1ccccc1CC2 | > 100 µM |  |
| CN(C)C(CN)CC1=C(CC(CN)N(C)C)CCC1 (stereo unspecified) | > 100 µM |  |
| COc1ccc2c(CCCC(c3ccccc3)c3ccccc3)c3[n+](cc2c1OC)CCc1cc2c(cc1-3)OCO2 | 2.62 µM | 1.25 µM |

| Structure (SMILES) | TGI | GI50 |
| --- | --- | --- |
| CC(=O)N/N=C1/NN(C(C)=O)C2(S1)C(=O)Nc1ccc(Br)cc12 (stereo unspecified) | > 100 µM |  |
| CCCN=Cc1cc(Cc2ccc(O)c(C=NCCC)c2)ccc1O | 28.2 µM |  |
| O=c1c2ncn(C3CC(O)C(CO)O3)c2nnn1Cc1ccccc1[N+](=O)[O-] (stereo unspecified) | > 100 µM |  |
| Cc1ccc(S(=O)(=O)Oc2cc(N)c3c(n2)CCC3)cc1 | > 100 µM |  |
| COc1cc(C2c3cc4c(cc3OC(N3CCCC3)C2C)OCO4)cc(OC)c1OC (stereo unspecified) | 9.79 µM |  |
| CN(C)c1nc(=NCc2ccncc2)ss1 | > 100 µM |  |
| Cc1cc(N(CCC#N)S(=O)(=O)c2ccccc2)ccc1/C=C1N=C(/C=C/c2ccccc2)OC\1=O | > 100 µM |  |
| O=C1C(c2c(O)[nH]c3ccc(S(=O)(=O)O)cc23)=Nc2ccccc21 | > 100 µM |  |
| CCCc1[nH]nc(CCC(=O)N(Cc2ccccc2)Cc2ccccc2)c1CC | > 100 µM |  |
| O=C([O-])c1ccccc1Nc1ccccn1.O=C([O-])c1ccccc1Nc1ccccn1.[Ni+2] | > 100 µM | > 100 µM |
| CN(C)c1ccc(-c2c(C#N)c(S)n(NS(=O)(=O)c3ccccc3)c(=O)c2C#N)cc1 | > 100 µM |  |
| Cc1cc(-c2nc3c(O)cccc3s2)ccc1N | 83.4 µM |  |
| CCNC(=O)Nc1ccccn1 | > 100 µM |  |
| CCC(=O)OC[n+]1ccc2c(C)c3[nH]c4ccc(OC)cc4c3c(C)c2c1 | 1.53 µM |  |
| CCN1C(=O)N(CC)C2C1NN=c1s/c(=C\c3cccnc3)c(=O)n12 (stereo unspecified) | > 100 µM | 0.548 µM |
| c1cc(-c2cn3ccsc3n2)ccn1 | > 100 µM |  |
| CCCCOC(C)(C)/C=C/C(O)[C@](C)(O)[C@H]1[C@H](O)C[C@@]2(C)[C@@H]3CCc4c(cc(OC5OC(CO)C(O)C(O)C5O)c(O)c4C)C3(C)C(=O)C[C@]12C (stereo partly specified) | > 100 µM |  |
| CC(CC(C#N)(c1ccccc1)c1ccccc1)N1CCCCC1 (stereo unspecified) | > 100 µM |  |
| CCC[C@H]1C(=O)N=C(N)N1C(=O)OCc1ccccc1 | > 100 µM |  |
| Nc1c2ccccc2nc2c1ccc1ncccc12 | > 100 µM |  |
| O=C(O)[C@@H]1C[C@@H](O)CN1C(=O)OCc1ccccc1 | > 100 µM |  |

| Structure (SMILES) | TGI | GI50 |
| --- | --- | --- |
| Cc1[c-]onc1C.Cc1[c-]onc1C.[Ag].[Ag].[NH-]S(=O)(=O)c1ccc(N=Nc2cc(N=Nc3ccc(S([NH-])(=O)=O)cc3)c3c(NC(=O)C(Cl)Cl)cccc3c2OC(=O)C(Cl)Cl)cc1 | 32.7 µM | 11 µM |
| C=C1C(O)C2(O)OCC34C(CC5C(C)=CC(=O)C(O)C5(C)C23)OC(=O)C(OC(=O)C/C=C(\C)CCCCC)C14 (stereo unspecified) |  | 0.0101 µM and 0.05 µM and 0.0125 µM |
| COc1cc(OCc2ccc3oc(=O)c(-c4ccccc4)nc3c2)cc(OC)c1OC | > 100 µM |  |
| COc1ccc(N[C@H](CSc2ccc(C)cc2)c2ccc(F)cc2)cc1 | > 100 µM |  |
| CCN(CC)CCNc1ccc2nnn3c4ccc(OC)cc4c(=O)c1c23 | 21.1 µM |  |
| CC(C)(C)NC(=O)[C@H]1CC[C@H]2[C@@H]3CC=C4NC(=O)CC[C@]4(C)[C@H]3CC[C@]12C | > 100 µM |  |
| Nc1c(C(=O)Nc2cccc([N+](=O)[O-])c2)sc2nc3c(cc12)C(O)CCC3 (stereo unspecified) | > 100 µM | > 100 µM |
| COc1ccc2nc3cc([N+](=O)[O-])ccc3c(NCCCCCN(C)C)c2c1 | 10.2 µM | 0.201 µM |
| O=CNc1c(Cl)cc2c(c1Cl)Cc1cc([N+](=O)[O-])ccc1-2 | 37.6 µM | 4.72 µM |
| CSC1CC2C(CC1(C)O)C2(C)C (stereo unspecified) | > 100 µM |  |
| C=C(Cl)/C(=C\Cl)CCC(Br)C(C)C (stereo unspecified) | > 100 µM |  |
| Cc1sc(C(=O)Nc2cc(C(=O)NCCCN(C)C)n(C)c2)cc1NC(=O)CCCN1C(=O)c2cccc3cccc(c23)C1=O | > 100 µM | > 100 µM |
| CCOC(=O)C1=C(C)N(Cc2ccccc2)C(C)=C(C(=O)OCC)C1c1ccccc1O | > 100 µM |  |
| COC(=O)c1csnn1 | > 100 µM |  |
| COc1ccc(/C(=N/O)c2ccccc2-c2nc3ccccc3c(=O)n2-c2ccc(S(=O)(=O)Nc3ncccn3)cc2)cc1C | > 31.6 µM |  |
| CC1=NCCc2c1[nH]c1cc(O)ccc21 | > 100 µM |  |
| O=c1cc(/C=C/c2ccc(O)c(O)c2)oc(/C=C/c2ccc(O)c(O)c2)c1 | 15 µM |  |
| COc1ccccc1NC(=O)CC(=O)N1N=C(C)C(N=Nc2ccc(S(N)(=O)=O)cc2)C1=O (stereo unspecified) | > 100 µM |  |
| c1ccc2c(c1)[nH]c1nc3cc(-c4ccc5nc6c(nc5c4)[nH]c4ccccc46)ccc3nc12 | > 100 µM |  |
| C=CCc1c2c(c(OC)c3ccoc13)C(=O)/C(=C/c1ccccc1OC)O2 | 67.5 µM | 5.93 µM |
| COc1ccc2c(c1)O/C(=C\c1cccc(OCC(=O)Nc3nc4c(s3)CCCC4)c1)C2=O | > 100 µM | > 100 µM |

| Structure (SMILES) | TGI | GI50 |
| --- | --- | --- |
| CC(=O)NS(=O)(=O)c1ccc(NC(=O)c2c3ccccc3nc3ccccc23)cc1 | > 100 µM |  |
| Cc1ccc(/C=C2\CN(C(=O)OC(C)(C)C)C/C(=C\c3ccc(C)cc3)C2=O)cc1 | > 100 µM |  |
| COc1ccc(-c2cc(=O)c3cc4c(cc3[nH]2)OCO4)c(OC)c1OC | > 100 µM |  |
| O=[N+]([O-])C(=C(N1CCCCC1)N1CCCCC1)/C(Cl)=C(\Cl)Br | 81.4 µM |  |
| C=C1C(=O)OC2/C=C(\CO)C(OC(C)=O)CC(O)/C(C)=C/C(OC(=O)C(C)CC)C12 (stereo unspecified) | > 100 µM |  |
| CCN(CC)S(=O)(=O)c1ccc(OC)c(Nc2ncc(-c3ccccc3)o2)c1 | > 25 µM | > 25 µM |
| COCCN1C2=CCCCC2=Nc2c1nc(N)[nH]c2=O | > 100 µM |  |
| O=Cc1cn(C(=O)c2ccccc2)c2ccccc12 | > 100 µM |  |
| O=C1CCC(=Nc2ccc(Cl)cc2)N1C(=O)COc1ccc(OCC(=O)N2C(=O)CSC2=Nc2ccc(Cl)cc2)cc1 | > 100 µM |  |
| C/C(N=Nc1nc2ccccc2s1)=C1/C=CC=CN1O | 70.5 µM |  |
| CCOP(=O)(OCC)C1C(CO)OC(n2ccc(=O)[nH]c2=O)C1O (stereo unspecified) | > 100 µM |  |
| CCN(Cc1ccc(F)c(F)c1)c1ccc(CO)c(Cl)c1 | 31.6 µM | 11.4 µM |
| COC(=O)NN(C(=O)OC)c1c(-c2ccccc2)nc(SC)n1N | > 100 µM |  |
| CC(C)(C)C1=Cc2cc3cc(C(C)(C)C)[nH]c(=O)c3cc2S(=O)(=O)N1 | > 100 µM |  |
| Cc1cccc(NC(=O)CC(=O)N2N=C(N(CCC#N)c3ccc(Cl)cc3)CC2c2ccccc2)c1 (stereo unspecified) | > 100 µM |  |
| COc1ccc(CC(CO)NC(=O)OCc2ccccc2)cc1Oc1ccc(CC(CO)NC(=O)OCc2ccccc2)cc1 (stereo unspecified) | 47.1 µM |  |
| CN(C)NC(=S)Nc1ccccc1Br | > 100 µM |  |
| CC1CCCCc2nc3c(c(=O)n21)CCCC3 (stereo unspecified) | > 100 µM |  |
| Cc1cc(C)c2c(=O)n(CN3CC4Nc5ccccc5C4C3)sc2n1 (stereo unspecified) | > 100 µM |  |
